According to the supplement of paper PMC3334620:
Over roughly 33,000 sequences, “E-score (-0.5 to 0.5)” has its median near -0.054; the highest 2% begin near 0.39. The list shows a part of the results.

target: Ylr278c (UniProt Q05854); assay: PBM E-score (8-mer binding enrichment) (E-score (-0.5 to 0.5)); higher = stronger / more preferred TF binding; most listed sequences are background and not binding sites; conditions: protein concentration: 200 nM; construct: GST-DNA-binding domain
How it was run: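 Masliner-normalised scans of fluorescent anti-GST signal were the basis for scoring. That signal came from GST-tagged yeast transcription factors applied at about 100-200 nM to double-stranded universal all-10-mer Agilent arrays on fresh or once-stripped slides. Each ungapped eight-base word, pooled with its reverse complement, received an E-score from the Universal PBM Analysis Suite.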

Sequence | PBM E-score
GTTGCAGA | -0.0415
TTCTACAA | -0.164
TCCCTTAA | -0.263
TAGGTATA | -0.209
AAATATGC | -0.0391
GAATGGAC | -0.102
CCGTATTA | 0.211
AAATCCCA | -0.101
CCAACCGC | 0.0736
GGTGGCTA | -0.2
TCCGCCCA | 0.283
AGCTGTGA | -0.147
CTTTAGTA | -0.25
AGAATGAT | -0.0599
AAGTACTC | 0.0456
CAATAGTA | -0.0755
AAATCCAG | -0.0486
GTTCGTAA | -0.126
GTTGTCCA | -0.237
GACCAGGC | -0.21
ACGCTTAT | -0.202
AGATTAGC | -0.109
GTGCAGAA | -0.0977
AGAGACAG | -0.071
ATAGGGTA | -0.197

Sequence | PBM E-score
GAGTCCTA | -0.145
AAGGTCAA | -0.195
AACTCCAC | 0.00252
GCAGAGCA | -0.235
CTTGCGAC | -0.134
ATTTGGAA | -0.128
TAATTCCA | -0.0294
CTAGGATC | -0.0843
GCTTAACA | -0.0421
CGGCCCCA | 0.0896
ATCGAGCC | -0.0378
TCGGTGCA | 0.2
CTCACATA | -0.229
TAGTGGAA | 0.0677
TGAAGGCA | -0.241
CATGCATA | -0.229
CGGCGATC | 0.338
CCGGCAGA | 0.251
GCGCCGGA | 0.432
AAAGGTTC | -0.0266
TCAGTGCA | -0.21
AAGGGAAG | -0.153
CTTGGTCC | -0.0131
CACAACAG | -0.244
AGAATACG | -0.017

Sequence | PBM E-score
GAACACAC | 0.00508
CAGCAGGA | -0.214
AACCGGGA | 0.241
CAATGGTC | -0.19
CAAATCCG | 0.381
AAGGTGTA | -0.0554
CACTGCCA | -0.217
AAAGCATT | -0.217
CCATGCAA | 0.114
GCGACTAC | 0.0244
ACAACTCC | 0.295
ACTGGCTG | -0.0116
GGGGGACC | -0.128
CGATCTAA | -0.0808
AACCCAGT | -0.0306
AGAAGTTC | -0.183
CTATACGC | -0.0641
CTGCTTCC | 0.0372
ATAATGGC | -0.0395
GTCGAAAA | -0.102
AATGCTCC | 0.153
AGCCTGGG | -0.00528
CAACCTAG | -0.24
CAGTCCCA | -0.104
ATCCGGGG | 0.414

Sequence | PBM E-score
AATTAACA | -0.128
TGGCGACA | -0.197
TAAAACTA | -0.0762
CCTTAACC | -0.267
AATTGACG | 0.0788
CGGATACA | 0.297
GATTAGGC | -0.103
ACGATTAC | -0.192
CATGGCCA | -0.203
CCAGAGCA | -0.0996
AGATCCTG | -0.133
CAGTACCA | -0.238
GTTACGCA | -0.0981
CCGCATCA | 0.174
CAGTGGAA | -0.144
ATGACACA | -0.149
CTTCCTCA | -0.0724
AATTGATA | -0.0338
ATGATCGC | 0.0153
CCCCTCTC | -0.116
AGCGGGAA | 0.182
CGAGACCA | -0.0366
CGTCACAA | 0.0364
ATTCGTAA | -0.0993
ATCATGTA | -0.269

Sequence | PBM E-score
GATACCGC | 0.18
CAGTTAGA | -0.139
GCCTGAGA | -0.066
AAGAACTC | -0.0203
ATGTCATG | -0.217
GCAAGCAC | -0.311
TATACACA | -0.261
ATACGCTG | -0.0284
TCCTATCA | -0.135
ATTCTATA | -0.108
CATGGGCG | 0.0656
CTAAGGTC | -0.177
GGACGAGA | 0.0381
CTACAAGC | -0.132
GGTAGCGA | -0.00554
CTCGTTCC | 0.165
ACAAAATG | 0.0866
AACTGGCG | 0.0285
CTACCTAG | -0.234
AAGGTAAT | 0.0825
CGAGGGAC | -0.22
GATGTCGA | -0.0459
CTAAGCCC | 0.0902
AATATTTC | 0.139
AGTTTGCG | 0.0593

Sequence | PBM E-score
TAGGAGCA | -0.184
CTGCCCTA | -0.0934
AAGAATGG | 0.125
CGATCGTA | 0.00037
GCAGCCAC | 0.00248
ATACTCCA | -0.0317
CCCGGTTA | 0.264
ACCCTGTG | -0.183
CGAACTCA | -0.0578
CAATCTCA | -0.164
CGGCCGCA | 0.249
AAACCAGT | -0.284
AACTCCAT | 0.214
GCGGTTCC | 0.154
AAACGCGT | 0.00159
ACGGAATC | 0.32
AAAAGTCG | 0.0652
GTGATTAA | -0.0576
GATTCTAC | 0.107
GCACGACA | -0.192
TCGAGAGA | -0.147
CAGAGGGC | 0.00349
ACTACAGG | -0.00991
ATGACGAA | -0.108
CTACCAGC | -0.259

Sequence | PBM E-score
ACTCGGAC | 0.383
AGACTGCC | -0.109
CACCACCG | 0.143
ACTAAGCT | -0.21
AGAAGCGG | 0.24
CCGTGGGC | 0.249
AGCCAGTC | -0.13
AGTTTGAG | -0.0067
AGTATGAA | 0.208
GCAGTCGC | -0.166
ATAGGGGA | -0.141
GGCCGTGA | 0.148
ATGAGGCA | -0.258
GACGTTGC | -0.0429
ATATCATA | -0.0875
ATATGCGC | 0.00517
AGGTACCC | -0.262
CTTATAGC | -0.203
CATCCAAC | -0.114
CATAGTAG | -0.163
CTATGAGC | -0.3
AAGTCCCC | 0.0247
AACCCGGG | 0.319
GAGGGTGA | -0.183
TAGCTAGA | -0.285

Sequence | PBM E-score
AAGTACGG | 0.0776
CGGCACCG | 0.378
AATGCCGC | 0.352
CACGACTC | -0.12
GAACAACC | 0.1
CAATGCTC | -0.0684
ATTGTAAG | -0.175
CAAACTTG | -0.104
ACGCGCAC | 0.0133
GAAGAGCA | -0.0722
CAAGAGCA | -0.262
ATCCACCA | -0.234
CCACGCAA | -0.0373
CTTGCTTA | -0.123
TACACCGA | 0.242
ATATGCCA | 0.0234
AACCCGGT | 0.304
GAAAAGGC | 0.0827
AACACATA | -0.188
GTGCCTGA | -0.0603
TCAACAAA | -0.0688
ACAACGGT | -0.167
ACACGGTA | 0.0246
AAACGATG | 0.0454
TAGCTGCA | -0.184

Sequence | PBM E-score
ATATGGGC | -0.0292
CCACCGAC | 0.0976
AAAGAGAT | -0.185
TACAGATA | 0.0234
AATCCTGC | -0.069
AGAATGAA | -0.173
TAGTTGGA | 0.0205
TCGGCTAA | 0.122
AGACGGTA | -0.103
GCTCAGAC | -0.152
AACCCGTT | 0.0139
ACTCGAGT | -0.225
CACCCAGC | -0.00607
AGGCAGCC | 0.0103
AAAACGGG | 0.192
AATTGGGG | -0.0147
GAAGCTCA | -0.098
CGCCTCCC | -0.0118
CCGGATAG | 0.347
ACCAAAAG | -0.224
AATGCAGC | -0.184
GGGGCATA | 0.00676
ACCGAGTG | -0.0762
TCATAAGA | -0.123
TACATCCA | -0.235

Sequence | PBM E-score
CGCGGTAC | 0.212
AGGCTGCG | -0.179
CCTGGGCC | -0.0612
TAATTTCA | -0.0427
CCAGTAAA | -0.0398
AGTATTCA | -0.063
TCATCCCA | -0.268
GACTCTAA | 0.00309
CGACCGGA | 0.409
GTGGAAGA | -0.118
TATTGAGA | -0.023
CCTTTAAG | -0.27
ACCGGCGG | 0.402
CGGCCGAC | 0.309
ACAGAGAA | -0.124
CTAGGTGC | -0.163
ACTGGCGG | 0.17
GTAAGTCA | -0.17
CGAAAAAG | 0.105
ACGCCCGA | 0.249
ACTTCCCA | -0.15
GCATCAAC | 0.0558
AAAATTTA | -0.0856
CCTGTAAG | -0.28
AGCATTTG | -0.0183

Sequence | PBM E-score
AAAGAAGG | -0.134
GCGAAAGC | -0.0157
AGTACAGG | -0.207
ATAATGTC | 0.194
CCGTAACA | 0.0638
CGGCTGGC | 0.0963
ACTTCCAA | -0.204
ATGCACAT | -0.11
ATTTGTCA | -0.182
ATGTAAGA | -0.0831
ACACGACG | -0.147
AATCAAGT | -0.178
ACTAGAAT | -0.0455
AACTATGT | -0.0275
ACCAGGGA | -0.254
CCGGGGAG | 0.346
GTGACTCA | -0.241
ACCACCTG | 0.037
GCAGTCAC | -0.224
CAAACCGC | 0.138
ACGCGCAA | 0.163
CACTCATA | -0.157
CGATGCCA | -0.096
AATTGTTG | -0.227
GATAAAGA | -0.0748

Sequence | PBM E-score
ACAGATTG | -0.0774
AAGGGCTC | -0.299
AATTTGGA | -0.204
CAAAGTAA | 0.0244
ACTTCAAA | -0.0999
ACCCTTCG | 0.0769
ACCAATGC | 0.117
CCATCCGG | 0.229
CGATATAA | -0.0278
CCGGAAAA | 0.453
AGAATTGG | -0.122
GTAGGCAC | -0.15
CTACACAG | -0.232
AACGATTC | 0.0311
ACTTTCGG | 0.217
CAAGTCGG | 0.16
ACGAACTA | -0.172
CTCTTCAA | -0.116
GATTTTCC | 0.263
AAACTGAC | -0.00553
TCGGTCCA | -0.0418
GTACTGTA | -0.103
ATGGCGAC | -0.0804
ACTAATAG | -0.0539
AAGCTCCG | 0.477

Sequence | PBM E-score
AGCGAAGA | -0.0955
AAACACAG | 0.015
TCGTCAAA | -0.0475
CCCGTTAC | 0.0521
CTACGGTA | -0.0408
CGGGGTGC | 0.287
CCTGCTTA | -0.129
CTGCTGTA | -0.0872
GAGATGTA | 0.0851
GAAGAAGA | -0.0787
AAACTGCT | -0.22
ATCCCCTC | -0.202
CGTACGAA | -0.0657
CTTGTTAA | 0.114
AACTGCCT | -0.115
AAACTGTC | -0.277
ACTAGTCA | -0.309
CTCGCATA | -0.219
AAGGGTTG | -0.257
AAATATCA | -0.185
CCCGATAC | 0.204
GTGCCAAA | -0.127
AAGTTACC | 0.047
CTACGAAC | -0.151
CCGGCCCA | 0.284

Sequence | PBM E-score
ATACAGAT | -0.122
TCTGAACA | -0.203
ATGGTCTA | -0.294
CCAATAGG | -0.0412
CTATTAGA | -0.156
GAAACGTC | -0.0375
AGAGTGAT | -0.174
CTTTAACA | -0.0348
GTTAATTA | 0.0295
ATGTTCTC | -0.111
CTACTTTC | -0.0554
AGCCGGGA | 0.272
ATGTCAGC | -0.19
ACGGTTCT | -0.239
CGCGGCGA | 0.324
AACGGACG | 0.235
CCGCATTA | 0.329
ATACCCTC | 0.0353
ATCGAGTA | -0.157
